Test results published in paper PMC10726135.
Some of the results follow. At the low end of the ranking the order means little. Measured with an extract: partners may take part in the binding.

These sequences were tested against T1, HNF4alpha8 (COS-7 nuclear extract) (UniProt P41235-5) (assay: protein-binding microarray). Conditions: COS-7 nuclear extract on double-stranded Agilent 4x180k PBM; binding buffer, salt, pH and temperature not given; high values mean tight binding; double strand, one strand shown; sequences stand for … in …GCCTAGGGAGATTAGAGTATCGGTCGA.
T1 sequence: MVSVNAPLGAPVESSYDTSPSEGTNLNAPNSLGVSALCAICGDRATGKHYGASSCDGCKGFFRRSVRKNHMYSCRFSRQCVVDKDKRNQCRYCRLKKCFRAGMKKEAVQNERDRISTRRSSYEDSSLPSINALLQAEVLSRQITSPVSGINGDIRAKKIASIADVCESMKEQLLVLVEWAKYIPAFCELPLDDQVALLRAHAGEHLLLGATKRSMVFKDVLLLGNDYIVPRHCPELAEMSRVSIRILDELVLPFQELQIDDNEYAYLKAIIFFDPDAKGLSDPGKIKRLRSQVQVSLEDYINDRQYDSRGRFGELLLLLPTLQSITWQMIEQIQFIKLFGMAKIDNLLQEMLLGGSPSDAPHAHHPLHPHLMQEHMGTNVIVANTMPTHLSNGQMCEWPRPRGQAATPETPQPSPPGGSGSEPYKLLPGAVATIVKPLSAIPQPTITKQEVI
AAGTCTGTTTATCCTGCCTCCATTAATTAA was tested, and the binding signal (log2 normalized intensity) was 0.448.
GCCTCCCCCTTCTGAGTCTCCAATGTCCAT was tested, and the binding signal (log2 normalized intensity) was 2.63.
Work on AAGGTTAGGGGGATTCTGGCTAAACCAGCC yielded a binding signal (log2 normalized intensity) of -1.43.
Sequence CCTGTCAGTCTCTCAATGATTGACAGGTTA has a binding signal (log2 normalized intensity) of 0.739.
CAGGAATATCAACAGGAGCAAATATCGCTT showed a binding signal (log2 normalized intensity) of -1.3.
In the case of GGCTGGGGCCCTCTTCCAGCTGAGACAAGG, the binding signal (log2 normalized intensity) is reported as -1.35.
Work on GTATATCCTGACACAGGAAGGGGGATGTCT yielded a binding signal (log2 normalized intensity) of -1.17.
CTTATCATGCTGTCTCTGAAAGCAAACAAT gave a binding signal (log2 normalized intensity) of -1.21.
In the case of AGGAGCAGGAGCAGAAGCAGGCCTCGGGCC, the binding signal (log2 normalized intensity) is reported as -1.29.
Sequence GCCAAGGGCAGTGTTTGCCCAGCTTGAATC has a binding signal (log2 normalized intensity) of -0.771.
In the case of CGGGCACTGATAACGCCCGCCTAACCTTGA, the binding signal (log2 normalized intensity) is reported as -1.2.
For GGGAATGTGGGTCCACATTCCTGATGCTAG, the binding signal (log2 normalized intensity) was 0.702.
In the case of CAGCTTATCTGTCCATCCCTCACTCCTGTC, the binding signal (log2 normalized intensity) is reported as -0.642.
For TCCAACCCACAGGGGTAGAAGCTGAGCAGC, the binding signal (log2 normalized intensity) was -1.3.
In the case of TGCTTGTGTTGGAGCATTAGTTGACCATTG, the binding signal (log2 normalized intensity) is reported as 2.21.
In the case of CAAACTATAGATTTGTGATGAGAATAAATT, the binding signal (log2 normalized intensity) is reported as 0.644.
CTTAGGGAGGGTGAAGGTCACAATTTCCAG showed a binding signal (log2 normalized intensity) of 3.2.
Work on ACTGAGGCTCAATGAGGTCAATAGTCCAGA yielded a binding signal (log2 normalized intensity) of 5.04.
With CTTATCAGCAGCTGGGGTGACTGATTGGAG the binding signal (log2 normalized intensity) was 0.845.
CTAGCAAAAATCCTGCCAAACCAGTTCAAC showed a binding signal (log2 normalized intensity) of -1.39.
For TTACTCACCTGATTCAATGTCTGGAAGTTC, the binding signal (log2 normalized intensity) was 1.38.
ACACAGACAAAGACAGAGAGGCTTCCCTTT gave a binding signal (log2 normalized intensity) of -1.35.
TGAAGGAACAGGTTCAGATAAGACAAGCTC gave a binding signal (log2 normalized intensity) of -1.22.
GGAAAGCTGAGGCCCAGGAAGCTCCAGCGG was tested, and the binding signal (log2 normalized intensity) was -1.14.
With AGAATGTGGTTCTTTTCATTAAATATTTAA the binding signal (log2 normalized intensity) was 0.534.
CCTGGATCTTCCAGGCCTCCAGCTCTTTTG was tested, and the binding signal (log2 normalized intensity) was -1.22.
In the case of CTCAGAGGACCTGACATTCTCCACTTGGTG, the binding signal (log2 normalized intensity) is reported as -1.34.
GCCTGGACAGATAAGAAGGGGTCAGACCAG showed a binding signal (log2 normalized intensity) of 2.9.
GGCTCCTATTTCTGGCCCTGCAATTTGATT gave a binding signal (log2 normalized intensity) of -0.0711.
CATCGCAGAAAGCTCTTTGCACAGTACTGA showed a binding signal (log2 normalized intensity) of -0.957.
GGGTTCAAGCTTGATCCAGGATCCTTCTTG showed a binding signal (log2 normalized intensity) of -0.0828.
GACCTTTGTTTTATTGTCATGCTGATATTC gave a binding signal (log2 normalized intensity) of 3.11.
GCAGGCTCAGAACTACCAATGTTTACCAGC showed a binding signal (log2 normalized intensity) of -1.29.
With TGACAAACATGTATCAGTGATAGACTAACT the binding signal (log2 normalized intensity) was -1.34.
AACCTTTGCCCCAGCTGTCACCCAGCCAGA showed a binding signal (log2 normalized intensity) of 4.16.
With AAAAGATAAGGACACAAGTGTCAGAGCAGG the binding signal (log2 normalized intensity) was -1.29.
TGAGTCCCCCGGCTCTACGCAAGTGGTACC showed a binding signal (log2 normalized intensity) of 3.08.
With CGCGTCCTCGGCTCTGCGCAGGCGCAGTCC the binding signal (log2 normalized intensity) was -1.26.
Sequence TAGAGCTGCTTACATTTTGCTCTGTTGTGT has a binding signal (log2 normalized intensity) of 1.58.
TACTTATGTCTCCAGAAACCAACCTTTGAT gave a binding signal (log2 normalized intensity) of 4.
For CTAAGATTTATAAAGGGCAGCAAGTATTCA, the binding signal (log2 normalized intensity) was 0.121.
With CTTTGAGCCAGAATCTGTCAGCTGCCTTTC the binding signal (log2 normalized intensity) was -1.27.
Work on GTGTTGAGAATCCCTCCCCTGTGCAAACTT yielded a binding signal (log2 normalized intensity) of 3.14.
TTAAGTCAAAATATAAGGTCCAACTGACAT gave a binding signal (log2 normalized intensity) of 1.7.
Work on CTTCTTTGAAAGTTTGGTGGACTTTGGCCG yielded a binding signal (log2 normalized intensity) of 10.1.
Work on TAAACCTGTTTGGTATCTACTCGGCAAAAC yielded a binding signal (log2 normalized intensity) of 1.28.
Work on TTGTGAGTCCAAAGGTCAGCCGGGGAAGGT yielded a binding signal (log2 normalized intensity) of 7.55.
Sequence CCTTGGATCTCCTGCACCTGAACTTTGCTC has a binding signal (log2 normalized intensity) of 6.94.
CCTTGAGTTTGAACTTTGACTTATTTAGTA gave a binding signal (log2 normalized intensity) of 5.97.
With AAGTGGAATGCGCTTTCATGAGATGAAAGC the binding signal (log2 normalized intensity) was -1.46.
CAGCAGGGCACCGCCTCCACACCCCAGCCT was tested, and the binding signal (log2 normalized intensity) was 2.55.
CAAACTGCTGAAGATAAGACTTCCTCAGAT gave a binding signal (log2 normalized intensity) of -1.29.
Sequence AGTCCAGAGTCTGACAGAACTAAGCTGTTG has a binding signal (log2 normalized intensity) of -1.34.
GTTTGCTTTTCCTTATCATCACATGTGCAA gave a binding signal (log2 normalized intensity) of 1.01.
For GGTAATCACCCTCTCCACCCCCATGCAAGT, the binding signal (log2 normalized intensity) was 5.33.
CGGACCAGAGCCTGCCCCCGGGGCCGCCTT was tested, and the binding signal (log2 normalized intensity) was 0.167.
GCCTCCTGCCCCAGGAGCAGGATAGAAGGA was tested, and the binding signal (log2 normalized intensity) was -0.726.
Work on TTCAGATATTCCTGGAATGACAAGAATTGG yielded a binding signal (log2 normalized intensity) of 0.17.
Work on AAAGGTGAGAGAGCATCCAGATAAAGCTGA yielded a binding signal (log2 normalized intensity) of -1.37.
With AAATCAACAAATAAATAAGAAGCCTTATCA the binding signal (log2 normalized intensity) was -1.32.
Work on TGGCCAAAGTTCAGTAAATCTTAGAGAACA yielded a binding signal (log2 normalized intensity) of 2.27.
Work on GGCACACACGCATGGCCGGCAGCAGCCTTG yielded a binding signal (log2 normalized intensity) of -1.37.
Work on GACCTTTCACCCGCGCCCAGCGGTTCCGGG yielded a binding signal (log2 normalized intensity) of 3.84.
AGAAAGTGGCCGGACAGGTTGGGTCTGAAG showed a binding signal (log2 normalized intensity) of 0.856.
With GGCCTATAATTAGGTCTTTTGGTGAGTCTT the binding signal (log2 normalized intensity) was 0.842.
TAGATGTCCCAGTAGATAACTTCAAGGAGC was tested, and the binding signal (log2 normalized intensity) was -1.28.
In the case of TTTGGGCTCATCCATTTTCCTCTGAAAATC, the binding signal (log2 normalized intensity) is reported as -0.92.
With CACATACAGAATCCTTTACCTCCACCTCCA the binding signal (log2 normalized intensity) was 0.113.
With TACCCAAGCCCCAAATCTAGCATCAGTGAG the binding signal (log2 normalized intensity) was 0.747.
In the case of AGTATTTATTGAGCACTTTTGGTATGCAAG, the binding signal (log2 normalized intensity) is reported as 1.06.
For AAGCAGAGGTGACCCTTGCACTCATACTTG, the binding signal (log2 normalized intensity) was 5.55.
For TTGCCCCCGGGCACAGGGTTGAGTGGTGAC, the binding signal (log2 normalized intensity) was 2.86.
TATGCCTCTGTGACCTATAATCAGATGTAC showed a binding signal (log2 normalized intensity) of 2.33.
